Data taken from PubChem BioAssay AID485294 (National Center for Advancing Translational Sciences (NCATS), 2010).
Hit rate of the full screen: of about 370,000 compounds, about 150 (0.041%) were called active. Inconclusive results, whose numbers are uncertain, are shown with a selection of clear calls. Calls come from the whole dose curve; as a rule, active = well fitted inhibition curve with a large enough effect; inconclusive = small, poorly fitted or top-dose-only effect; inactive = flat fitted curve, though single readings scatter. Potencies of inconclusive entries are left out as doubtful fits.

The compounds below were run against Beta-lactamase (Escherichia coli (strain K12)) (UniProt P00811) (assay: qHTS Inhibitors of AmpC Beta-Lactamase (assay with detergent)). Conditions: AmpC hydrolysis of nitrocefin, absorbance 480 nm, 0.01% Triton; activity change, negative = inhibition: at 114 µM (top of the series).
Outline: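 AmpC (5.3 nM in the dispensed reagent) in 20 mM phosphate pH 7.0 with 0.01% (detergent screen) or 0.0001% Triton X-100 was preincubated with compounds for 15 min at room temperature. Nitrocefin was then added from an 800 uM solution, and hydrolysis was followed at 480 nm.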
Note: nearly all actives have a fitted effect of over 25% in size.
Potency is the fitted concentration of half-maximal effect; tags give direction and shape of the fitted curve.
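Throughout, for activity change, negative = inhibition: 0% = no-compound wells and -100% = no-enzyme wells.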

UniProt P00811, sequence (P00811 whole entry, looked up): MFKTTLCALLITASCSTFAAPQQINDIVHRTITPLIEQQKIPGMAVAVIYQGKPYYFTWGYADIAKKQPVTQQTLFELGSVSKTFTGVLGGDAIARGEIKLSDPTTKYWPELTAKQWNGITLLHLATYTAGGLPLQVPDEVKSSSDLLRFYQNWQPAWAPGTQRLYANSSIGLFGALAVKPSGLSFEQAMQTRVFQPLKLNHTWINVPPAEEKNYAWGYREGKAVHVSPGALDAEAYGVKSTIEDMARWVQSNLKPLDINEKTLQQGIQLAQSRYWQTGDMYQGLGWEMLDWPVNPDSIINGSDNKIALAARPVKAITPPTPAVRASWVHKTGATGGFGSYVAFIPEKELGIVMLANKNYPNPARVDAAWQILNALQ

SMILES	activity change, negative = inhibition	Potency
O=C(Cn1cc2c(n1)CCCCC2)Nc1ccccc1Cl	inactive: 6.45%	–
N#Cc1c2c(c(NCCN3CCOCC3)n3c1nc1ccccc13)CCCC2	–	inconclusive [inhibitor, partial curve, poor fit]
Cc1cc(-c2ccccc2)nc(N/N=C/c2ccccc2F)n1	inactive: 0.0572%	–
CCc1ccccc1S(=O)(=O)Cc1ccc(C(=O)NCCc2ccccc2)o1	–	inconclusive [inhibitor, full curve, poor fit]
Clc1ccc(OCCn2ccnc2)c(Cl)c1	–	inconclusive [inhibitor, partial curve]
CCOC(=O)c1cnc2c(Cl)cccc2c1NCCN(C)C	–	inconclusive [inhibitor, single point]
O=C(COC(=O)c1ccccc1NS(=O)(=O)c1ccc(Cl)cc1)NCc1ccccc1	inactive: -18.2%	–
COc1ccc(NC(=S)NNC(=O)CNc2ccc(Cl)cc2)cc1	–	inconclusive [inhibitor, full curve, poor fit]
C(=N\NC1=Nc2cccc3cccc1c23)/c1cccnc1	–	inconclusive [inhibitor, full curve, poor fit]
O=C(N/N=C/c1coc2ccc(Cl)cc2c1=O)c1ccc(O)cc1	–	inconclusive [inhibitor, full curve]
Nc1c2c(nc3ccc(Br)cc13)N(C1CCCCC1)CC2	inactive: -15%	–
CC(Sc1nnc(Nc2ccccc2)s1)C(=O)Nc1nc(-c2ccccc2)cs1 (stereo unspecified)	inactive: -4.01%	–
COCc1ccc(C(=O)NC2CCCc3c2cnn3-c2cc(C)cc(C)c2)s1 (stereo unspecified)	–	inconclusive [inhibitor, full curve]
CC(=O)c1c(C)[nH]c(C(=O)Nc2cccc(C#N)c2)c1C	inactive: -7.07%	–
O=C(CSc1nnc(COc2ccccc2)o1)N1CCCCC1	–	inconclusive [inhibitor, single point]
COc1ccccc1C(=O)NCC(c1ccco1)N1CCc2ccccc21 (stereo unspecified)	–	inconclusive [inhibitor, full curve]
CC(=O)N1CCN(C(=S)Nc2ccc(SC(F)F)cc2)CC1	inactive: -9.87%	–
CCSc1nnc(NC(=O)COc2ccccc2)s1	inactive: -6.99%	–
CCOC(=O)C1CCN(C(=O)c2ccc3c(c2)NC(=O)/C(=C\c2cccc(C)c2)S3)CC1	inactive: -1.33%	–
COc1ccccc1C(CC(=O)Nc1ccc(Cl)cc1)c1ccc(OC(C)C)cc1 (stereo unspecified)	–	inconclusive [inhibitor, full curve, poor fit]
Cc1ccc(N(CC(=O)Nc2cc(C)ccc2C)S(C)(=O)=O)cc1	–	inconclusive [inhibitor, full curve]
O=C(COc1cccc2cccnc12)N/N=C/c1ccccc1O	inactive: -2.5%	–
COc1cccc(/C=C2\N=C3CCCCCN3C2=O)c1	–	inconclusive [inhibitor, full curve, poor fit]
CN(Cc1ccccc1)S(=O)(=O)c1ccc2c(c1)OCCO2	–	inconclusive [inhibitor, full curve]

SMILES	activity change, negative = inhibition	Potency
CC(C(=O)O)N1C(=O)c2ccccc2C1=O (stereo unspecified)	–	inconclusive [inhibitor, full curve]
COc1ccc([N+](=O)[O-])c(OC)c1C(=O)NC(=O)Nc1c(C)cccc1C	inactive: -10.9%	–
O=C(c1cc([N+](=O)[O-])cc([N+](=O)[O-])c1)N1CCOCC1	inactive: 0%	–
COc1ccc(/C=C2\Oc3cc(OCC(=O)N4CC(O)C[C@H]4C(=O)O)ccc3C2=O)cc1OC (stereo partly specified)	–	inconclusive [inhibitor, full curve, poor fit]
COc1ccc(C(C)NC(=O)c2ccncc2)cc1OC (stereo unspecified)	–	inconclusive [inhibitor, full curve, poor fit]
CCCCn1nnnc1NCc1ccc(N(CC)CC)cc1	–	inconclusive [inhibitor, full curve, poor fit]
CCC(=O)c1cn(CC(=O)Nc2ccc(C)cc2)c2ccccc12	–	inconclusive [inhibitor, full curve]
CCOc1cccc(C2C(C#N)=C(N)Oc3cc(C)oc(=O)c32)c1OCC (stereo unspecified)	inactive: -14.9%	–
CCCCc1cc(=O)oc2c(CN(C)C)c(O)c(Cl)cc12	–	inconclusive [inhibitor, partial curve, poor fit]
O=c1[nH]c(=O)n(CCc2ccc(F)cc2)c(O)c1C=NCCCn1ccnc1	–	inconclusive [inhibitor, full curve]
COC(=O)NNC(=O)C1CCC(C)CC1 (stereo unspecified)	–	inconclusive [inhibitor, partial curve]
COc1ccccc1C(=O)CC(=O)c1ccccc1	–	inconclusive [inhibitor, partial curve, poor fit]
COc1ccccc1NC(=O)NCC(=O)Nc1ccc(F)c(F)c1	–	inconclusive [inhibitor, partial curve]
O=S(Cc1ccc(Cl)cc1)CC(O)COCc1ccc(Cl)cc1 (stereo unspecified)	–	inconclusive [inhibitor, full curve, poor fit]
CC(C)COC(=O)c1ccc(N2C(=O)c3ccccc3C2=O)cc1	–	inconclusive [inhibitor, single point]
O=C(CSc1nc2ncccc2[nH]1)NC1CCCC1	–	inconclusive [inhibitor, partial curve, poor fit]
N#Cc1cc2c(nc1SCC(=O)Nc1sc3c(c1C#N)CCC3)CCCC2	–	inconclusive [inhibitor, full curve, poor fit]
CCCS(=O)(=O)c1c(S(=O)(=O)CCC)c2c(C(N)=O)cccn2c1C(=O)c1ccc(F)cc1	–	inconclusive [inhibitor, full curve, poor fit]
C/C(=N\N1C(=O)c2ccccc2C1=O)c1cccc([N+](=O)[O-])c1	–	inconclusive [inhibitor, full curve]
CSc1c(CC(=O)Nc2ccccc2)n(Cc2ccccc2)c2ccccc12	inactive: -11.5%	–
COc1ccc2[nH]c3c(c2c1)CCN1C(=O)N([C@@H](C)C(=O)NCc2c(F)cccc2Cl)C(=O)[C@]31C	–	inconclusive [inhibitor, full curve, poor fit]
COc1ccc(CNC(=O)Cn2nc(C(F)(F)F)c(Br)c2C)cc1	–	inconclusive [inhibitor, full curve, poor fit]
Cc1ccc(NC(=O)CSc2nn(-c3ccccc3)c(=S)s2)cc1S(=O)(=O)N(C)C	inactive: -18.5%	–
O=C(c1cc2ccccc2cc1O)N1CCN(c2ccccn2)CC1	–	inconclusive [inhibitor, single point]

SMILES	activity change, negative = inhibition	Potency
CCC(C(=O)NCc1ccc(C)cc1)c1ccccc1 (stereo unspecified)	inactive: -13.6%	–
O=C(CCCn1c(=O)c2sccc2n(Cc2ccc(F)cc2Cl)c1=O)NCc1ccc2c(c1)OCO2	inactive: 2.88%	–
CC1(CCc2ccc3c(c2)OCO3)NC(=O)c2ccccc2N1 (stereo unspecified)	–	inconclusive [inhibitor, single point]
Cc1nc(NCCC(C)C)c2nnn(Cc3ccccc3)c2n1	–	inconclusive [inhibitor, partial curve]
COCc1c(C(=O)OCC(=O)NCCN2C(=O)CSC2=O)oc2ccccc12	–	inconclusive [inhibitor, partial curve]
O=c1cc(-c2cccs2)oc2ccc(Cl)cc12	inactive: -5.41%	–
COc1ccc2cc(CNc3ccc(C)cc3)c(=O)n(CC(=O)Nc3ccc(OC)c(Cl)c3)c2c1	inactive: 3.37%	–
CCOc1cc(/C=C(\C#N)C(N)=O)ccc1OS(=O)(=O)c1ccccc1	–	inconclusive [inhibitor, partial curve, poor fit]
Clc1ccc2c(c1)C(c1cccs1)=NNC(c1cccnc1)=N2	inactive: 3.68%	–
C=CCN1C=C/C(=C\C=C(C#N)C#N)c2ccccc21	inactive: -15.1%	–
COc1cc(OC)c(NC(=O)C2=C(C)C(=O)OC23CCCCC3)cc1Cl	inactive: -0.769%	–
Cn1ncc2c(NCc3ccccc3)nc(NCCCO)nc21	–	inconclusive [inhibitor, partial curve, poor fit]
C/C(=N/NC(=O)c1ccc(Cn2cccn2)o1)c1cccc(NC(=O)c2ccncc2)c1	inactive: -0.12%	–
Oc1c(Br)cc(Br)cc1CNc1cccc2cccnc12	inactive: 4.05%	–
Cc1ccc(-c2nnn(CC(=O)Nc3ccccc3-c3ccccc3)n2)c(-n2cnnn2)c1	–	inconclusive [inhibitor, partial curve, poor fit]
CCOC(=O)C1CCCN(C(=O)c2cccc(S(=O)(=O)N(Cc3ccccc3)c3ccccc3OC)c2)C1 (stereo unspecified)	–	inconclusive [inhibitor, full curve, poor fit]
Nc1c(NC2CCCCC2)c2ccccc2oc1=O	–	inconclusive [inhibitor, full curve, poor fit]
CCOC(=O)C1=C(COC(=O)C2CC(=O)N(c3ccccc3F)C2)NC(=O)NC1C (stereo unspecified)	inactive: -5.84%	–
Cc1ccc(OCC(=O)NCc2ccccc2)c([N+](=O)[O-])n1	–	inconclusive [inhibitor, partial curve, poor fit]
CNC(=O)c1c(NC(=O)CCS(=O)(=O)c2ccc(C)cc2)sc(C)c1C	–	inconclusive [inhibitor, partial curve]
CN1CCN(Cc2cc(Cl)c3cccnc3c2OC(=O)c2cccs2)CC1	inactive: -4.12%	–
CC1Cc2ccccc2N1C(=O)c1ccc(N2CCCCC2)c([N+](=O)[O-])c1 (stereo unspecified)	inactive: -0.987%	–
O=C(O)c1cccc(NC(=O)c2ccc(CN3C(=O)c4ccccc4C3=O)cc2)c1	–	inconclusive [inhibitor, single point]
